# Paper PMC4336329 (PLoS ONE, 2015)
# Screen size: about 310,000 compounds; about 2,200 (0.71%) showed an effect of 50% or more. Effects have a minus sign here. This is one part of the list.
# Target: human ether-à-go-go-related gene (hERG) potassium channel (human, UniProt Q12809)
# Assay: primary screen, population patch clamp on CHO cells stably expressing hERG
# Chain of human ether-à-go-go-related gene (hERG) potassium channel (Q12809 whole entry, looked up): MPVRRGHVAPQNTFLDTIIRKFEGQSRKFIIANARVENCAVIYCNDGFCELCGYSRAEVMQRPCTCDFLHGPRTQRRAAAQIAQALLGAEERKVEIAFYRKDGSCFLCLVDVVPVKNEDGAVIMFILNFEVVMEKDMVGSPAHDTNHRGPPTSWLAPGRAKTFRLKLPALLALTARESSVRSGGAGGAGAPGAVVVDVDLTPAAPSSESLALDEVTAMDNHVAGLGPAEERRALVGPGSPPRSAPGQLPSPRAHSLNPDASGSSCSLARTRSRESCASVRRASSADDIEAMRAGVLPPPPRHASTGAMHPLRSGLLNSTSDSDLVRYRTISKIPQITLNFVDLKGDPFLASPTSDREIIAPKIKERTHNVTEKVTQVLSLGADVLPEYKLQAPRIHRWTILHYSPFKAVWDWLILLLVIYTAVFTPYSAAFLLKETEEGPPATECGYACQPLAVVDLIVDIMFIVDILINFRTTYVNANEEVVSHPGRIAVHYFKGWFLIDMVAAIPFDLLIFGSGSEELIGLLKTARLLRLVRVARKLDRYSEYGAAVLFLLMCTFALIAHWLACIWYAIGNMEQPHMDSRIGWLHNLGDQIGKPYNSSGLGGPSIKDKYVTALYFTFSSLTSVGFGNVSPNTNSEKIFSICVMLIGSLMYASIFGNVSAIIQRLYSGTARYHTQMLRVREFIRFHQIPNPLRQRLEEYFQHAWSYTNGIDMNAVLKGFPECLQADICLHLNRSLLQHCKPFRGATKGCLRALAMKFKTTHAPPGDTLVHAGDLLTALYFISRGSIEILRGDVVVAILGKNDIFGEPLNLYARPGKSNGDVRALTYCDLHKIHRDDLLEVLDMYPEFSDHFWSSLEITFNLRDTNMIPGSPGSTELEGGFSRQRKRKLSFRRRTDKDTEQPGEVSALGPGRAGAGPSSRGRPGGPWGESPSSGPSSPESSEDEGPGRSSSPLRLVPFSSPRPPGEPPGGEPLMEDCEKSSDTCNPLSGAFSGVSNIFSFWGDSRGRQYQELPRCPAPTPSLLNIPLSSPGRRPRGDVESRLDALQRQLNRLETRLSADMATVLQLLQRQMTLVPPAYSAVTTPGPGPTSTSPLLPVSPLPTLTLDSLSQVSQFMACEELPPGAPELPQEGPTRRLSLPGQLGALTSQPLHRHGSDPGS
row,Compound,"hERG current change (%, negative = inhibition) at 1uM [%]"
1,O=C(COC(=O)c1cccc(S(=O)(=O)NCc2ccccc2)c1)c1ccccc1,13.2
2,O=C(Oc1ccccc1)c1ccc(COC(=O)c2cnccn2)cc1,14.9
3,CNC(=S)N1CCC(c2nc3ccccc3s2)CC1,-12.5
4,Cc1nn2c(-c3ccccn3)ccnc2c1Br,15
5,CCCC(=O)Nc1ccc(NC(=O)C23CC4CC(CC(C4)C2)C3)cn1,11.7
6,CC1CCN(Cc2nnc(-c3cccc(Br)c3)o2)CC1,5.27
7,CC(C)CN(C(=O)COC(=O)c1cnccn1)c1c(N)n(Cc2ccccc2)c(=O)[nH]c1=O,12.9
8,Cc1cc(/C=N/n2cnnc2)c(C)n1-c1ccc2c(c1)OCO2,-2.71
9,COc1cc(NC(=O)C2CCCN(S(=O)(=O)c3cccc4nsnc34)C2)cc(OC)c1 (stereo not drawn),8.96
10,CC(C)(C)NC(=O)COC(=O)c1ccc(Cl)c(S(N)(=O)=O)c1,5.96
11,Cc1cc(S(=O)(=O)N2CCN(Cc3ccc4c(c3)OCO4)CC2)cc(C)c1N1CCCC1=O,3.64
12,COc1ccccc1N(C(=O)c1cncc(Br)c1)c1nc(-c2ccc(C)cc2)cs1,6.23
13,CC(NC(=O)c1ccco1)c1ccc(-n2ccnc2)cc1 (stereo not drawn),-7.74
14,CC(C)(C)c1nc(NC(=O)Nc2ccccc2)sc1Br,14.9
15,Cc1nnc(SCC(=O)c2c(N)n(C)c(=O)n(C)c2=O)[nH]c1=O,17.7
16,Cc1ccc2nc3c(cc(C(=O)NC4CCS(=O)(=O)C4)n3Cc3ccccc3)c(=O)n2c1 (stereo not drawn),21.4
17,Cc1ccccc1-c1n[nH]c(=S)n1C,3.99
18,O=C(NNC(=O)c1ccccc1[N+](=O)[O-])c1ccc(NS(=O)(=O)c2cccs2)cc1,13.9
19,COc1ccc(OC)c(CN2CCN(C(=O)c3ccc(NS(=O)(=O)c4cccc([N+](=O)[O-])c4)cc3)CC2)c1,-4.89
20,CCCn1c(NCc2cccs2)nc2ccccc21,-6.87
21,CCN(CC)P(=O)(Nc1ccc(C)cc1Br)c1ccc(N(C)C)cc1NC(=O)c1ccco1 (stereo not drawn),7.52
22,Cc1ccc(-c2nc(CS(=O)(=O)CC(=O)NC3CCCCC3C)c(C)o2)cc1 (stereo not drawn),12.3
23,COc1cc(CNCc2ccccn2)ccc1OCc1ccc(Cl)c(Cl)c1.Cl,-5
24,COc1ccc(C(C(=O)NC2CCCC2)N(C(=O)c2csnn2)C2CCCC2)cc1 (stereo not drawn),9.63
